From article PMC3983190, “Chemical Derivatives of a Small Molecule Deubiquitinase Inhibitor Have Antiviral Activity against Several RNA Viruses” (PLoS ONE, 2014)

Tested on: rhinovirus (RV39)
Assay: Rhinovirus infection

CCC[C@H](NC(=O)/C(C#N)=C/c1cccc(Br)n1)c1ccccc1 [WP1130, reference compound]
inhibition of rhinovirus (RV39) infection: not inhibited
